# According to PubChem BioAssay (Tox21):
# Inconclusive means that the source gave no clear call. Such entries were picked first, then a sample of the others. For some assays here: A potency beside an inconclusive call is a rough fit, not a confirmed value. Calls of active or inactive are those of the source. Unless noted, calls come from the whole dose curve; as a rule, active = well fitted curve in the direction sought with a large enough effect in the repeat runs; inconclusive = weak or mixed curves; inactive = no such curve, though single readings can be large; an effect the other way counts as inactive or inconclusive.
# Key:
# [1] = qHTS assay to identify small molecule agonists of the hypoxia (HIF-1) signaling pathway (AID 1224846; active = well fitted activation curve with a large enough effect in the signal ratio in the repeat runs, not every such curve was filed as active; inconclusive = weak or mixed curves; the % refers to the signal ratio; note: potency is the fitted concentration of half-maximal effect); conditions: HRE-bla ME-180 cells, beta-lactamase ratio, 17 h; series mostly up to 76.8 µM
# Procedure, shortened: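 In ME-180 cells bearing an HRE-bla construct, 17 h treatment with DMSO-dissolved compounds at 37C was followed by CCF4-AM loading to quantify reporter induction.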
# [2] = A CellTox Green Cytotoxicity Assay to monitor cytotoxicity in HEK293 cells - 40 hour (AID 1224871); note: nearly all actives have a fitted effect of over 45% in size; note: potency is the fitted concentration of half-maximal effect
# Procedure, shortened: (§1)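 Homogeneous no-lysis format: HEK293 cell suspension mixed with CellTox Green reagent, seeded, incubated 5 h at 37 C/5% CO2, then dosed by pintool with compound in DMSO.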
# [3] = qHTS RealTime-Glo MT Cell Viability Assay in HEK293 cells - 16 hour (AID 1224872); note: nearly all actives have a fitted effect of over 50% in size; note: potency is the fitted concentration of half-maximal effect
# Procedure, shortened: (§2)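 Luminescence generated by NanoLuc from substrate produced by living HEK293 cells served as the viability signal. Each value reflects the reading at its stated time point during continuous 40 h compound exposure at 37 C.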
# [4] = qHTS RealTime-Glo MT Cell Viability Assay in HEK293 cells - 40 hour (AID 1224874); conditions: RealTime-Glo luminescence; max response: hits give low values; note: potency is the fitted concentration of half-maximal effect; nearly all actives have a fitted effect of over 50% in size
# Procedure, shortened: (§3)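 Measured as luminescence from the same continuously cultured HEK293 wells at successive time points (0, 8, 16, 24, 32, 40 h) after compound addition. Reagent present from seeding; dosing at 5 h; incubation 37 C.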
# [5] = A CellTox Green Cytotoxicity Assay to monitor cytotoxicity in HEK293 cells - 32 hour (AID 1224881); note: nearly all actives have a fitted effect of over 40% in size; note: potency is the fitted concentration of half-maximal effect
# Procedure, shortened: as §1
# [6] = qHTS RealTime-Glo MT Cell Viability Assay in HEK293 cells - 32 hour (AID 1224868); note: top concentration of the series differs between compounds; nearly all actives have a fitted effect of over 50% in size
# Procedure, shortened: as §2
# [7] = A CellTox Green Cytotoxicity Assay to monitor cytotoxicity in HepG2 cells - 40 hour (AID 1224879); note: nearly all actives have a fitted effect of over 40% in size; note: potency is the fitted concentration of half-maximal effect
# Procedure, shortened: (§4)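 Fluorescent DNA-binding dye, 600 HepG2 cells/well, 5 h preincubation then compound in DMSO; same plates read at 0–40 h, 37 C.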
# [8] = A CellTox Green Cytotoxicity Assay to monitor cytotoxicity in HepG2 cells - 16 hour (AID 1224876); note: potency is the fitted concentration of half-maximal effect; nearly all actives have a fitted effect of over 45% in size
# Procedure, shortened: as §4
# [9] = A CellTox Green Cytotoxicity Assay to monitor cytotoxicity in HepG2 cells - 24 hour (AID 1224878); note: potency is the fitted concentration of half-maximal effect; nearly all actives have a fitted effect of over 45% in size
# Procedure, shortened: as §4
# [10] = qHTS RealTime-Glo MT Cell Viability Assay in HEK293 cells - 0 hour (AID 1224880); note: nearly all actives have a fitted effect of over 45% in size; note: potency is the fitted concentration of half-maximal effect
# Procedure, shortened: as §3
# [11] = qHTS RealTime-Glo MT Cell Viability Assay in HepG2 cells - 8 hour (AID 1224873); note: potency is the fitted concentration of half-maximal effect; nearly all actives have a fitted effect of over 55% in size
# Procedure, shortened: (§5)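 HepG2 cells (600/well) mixed with RealTime-Glo MT reagent, settled 5 h at 37 C/5% CO2 before compound addition. Nonlytic NanoLuc luminescence from viable-cell prosubstrate reduction read repeatedly during 40 h treatment at 37 C.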
# [12] = A CellTox Green Cytotoxicity Assay to monitor cytotoxicity in HEK293 cells - 24 hour (AID 1224875); note: nearly all actives have a fitted effect of over 45% in size; note: potency is the fitted concentration of half-maximal effect
# Procedure, shortened: as §1
# [13] = qHTS RealTime-Glo MT Cell Viability Assay in HepG2 cells - 40 hour (AID 1224870); note: nearly all actives have a fitted effect of over 50% in size; note: potency is the fitted concentration of half-maximal effect
# Procedure, shortened: as §5
# [14] = qHTS RealTime-Glo MT Cell Viability Assay in HepG2 cells - 32 hour (AID 1224877); note: nearly all actives have a fitted effect of over 55% in size
# Procedure, shortened: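 Tox21 10K library screened in qHTS format on HepG2 cells carrying RealTime-Glo reagents. Compounds were added after a 5 h preincubation, and the luminescent signal from continuous culture was measured repeatedly during 40 h treatment.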
# Tags give direction and shape of the fitted curve or compound fluorescence and quenching.
structure (smiles),measurement,setting,value
C=CC(=O)OCCOC(=O)C=C,Potency,[1],"inconclusive: 24.5 µM [falling, partial curve]"
same,Potency,[2],active: 43.6 µM
same,Potency,[3],"inconclusive: 38.9 µM [cytotoxic, partial curve]"
same,Potency,[4],active: 49 µM
same,Potency,[5],"inconclusive: 38.9 µM [activator, partial curve, poor fit]"
OC1(c2ccc(Cl)cc2)CCNCC1,Potency,[1],inactive
same,Potency,[3],"inconclusive: 6.01 µM [cytotoxic, single point]"
same,Potency,[5],inactive
Cc1cc(-n2nc3ccc(Cl)cc3n2)c(O)c(C(C)(C)C)c1,Potency,[1],"inconclusive: 1.69 µM [falling, full curve]"
same,Potency,[6],inactive
same,Potency,[7],inactive
O=C1c2ccccc2C(=O)C1c1nc2ccccc2c(Br)c1O,Potency,[1],"inconclusive: 43.6 µM [rising, partial curve, poor fit]"
same,Potency,[8],"inconclusive: 54.9 µM [activator, single point]"
same,Potency,[9],"inconclusive: 43.6 µM [activator, partial curve, poor fit]"
same,Potency,[7],active: 4.9 µM
same,Potency,[10],inactive
COC(=O)Nc1nc2ccc(C(=O)c3cccs3)cc2[nH]1,Potency,[1],inactive
same,Potency,[3],"inconclusive: 0.477 µM [cytotoxic, full curve]"
C[Si](O[Si](C)(C)C)O[Si](C)(C)C,Potency,[1],"inconclusive: 0.195 µM [falling, single point]"
same,Potency,[2],inactive
CC(=O)OCC(=O)[C@@]1(OC(C)=O)[C@@H](C)C[C@H]2[C@@H]3C[C@H](F)C4=CC(=O)C=C[C@]4(C)[C@@]3(F)[C@@H](O)C[C@@]21C,Potency,[1],"inconclusive: 1.9 µM [rising, partial curve]"
same,Potency,[10],"inconclusive: 13.4 µM [falling, partial curve, poor fit]"
CCCC(=O)OCOC(=O)C1=C(C)NC(C)=C(C(=O)OC)C1c1cccc(Cl)c1Cl (stereo not given),Potency,[1],inactive
same,Potency,[3],inactive
same,Potency,[11],"inconclusive: 26.8 µM [falling, single point]"
same,Potency,[10],active: 9.52 µM
same,Potency,[5],inactive
CCC(C)COC(=O)CC(C)C (stereo not given),Potency,[1],"inconclusive: 17.4 µM [rising, partial curve]"
same,Potency,[8],"inconclusive: 54.9 µM [activator, single point]"
Cc1cc(C(C#N)c2ccc(Cl)cc2)c(Cl)cc1NC(=O)c1cc(I)cc(I)c1O (stereo not given),Potency,[1],inconclusive: 21.3 µM [partial curve]
same,Potency,[3],inactive
same,Potency,[4],"inconclusive: 26.8 µM [cytotoxic, single point]"
CCN(C(=O)c1cc(C)cc(OC[C@H](C)Nc2ccncc2)c1)C(C)C,Potency,[1],"inconclusive: 24.3 µM [falling, partial curve]"
same,Potency,[12],inactive
O=C1CCCCC1,Potency,[1],inactive
same,Potency,[3],inactive
same,Potency,[9],"inconclusive: 24.5 µM [activator, single point]"
same,Potency,[7],"inconclusive: 24.5 µM [activator, single point]"
Sc1nc2ccccc2s1,Potency,[1],inactive
same,Potency,[2],"inconclusive: 21.9 µM [activator, single point]"
same,Potency,[12],"inconclusive: 21.9 µM [activator, single point]"
same,Potency,[9],"inconclusive: 11 µM [activator, partial curve, poor fit]"
same,Potency,[7],"inconclusive: 12.3 µM [activator, single point]"
same,Potency,[5],"inconclusive: 21.9 µM [activator, single point]"
CCCCCCCCCCCC(=O)[O][Sn]([CH2]CCC)([CH2]CCC)[O]C(=O)CCCCCCCCCCC,Potency,[1],"inconclusive: 23.9 µM [falling, single point]"
same,Potency,[13],active: 19 µM
same,Potency,[2],active: 6.74 µM
same,Potency,[3],"inconclusive: 7.56 µM [cytotoxic, full curve]"
same,Potency,[7],active: 16.9 µM
same,Potency,[5],"inconclusive: 15.1 µM [activator, partial curve, poor fit]"
NCCOCCOCCN,Potency,[1],"inconclusive: 30.9 µM [rising, partial curve]"
same,Potency,[13],inactive
same,Potency,[14],inactive
CCOC(=O)N1CCC(Nc2ccc(Cl)cc2N)CC1,Potency,[1],inactive
same,Potency,[7],inactive
same,Potency,[5],inactive
CCCCCCC,Potency,[1],inactive
same,Potency,[12],inactive
CCOc1ccc2nc3cc(N)ccc3c(N)c2c1,Potency,[1],"inconclusive: 16.9 µM [activator, partial curve]"
same,Potency,[2],active: 21.3 µM
same,Potency,[3],"inconclusive: 19 µM [cytotoxic, partial curve, poor fit]"
same,Potency,[12],"inconclusive: 26.8 µM [activator, partial curve, poor fit]"
same,Potency,[5],"inconclusive: 23.9 µM [activator, single point]"
CCCCOC(=O)CCS,Potency,[1],inactive
same,Potency,[12],inactive
